Measurements published in the supplement of paper PMC3334620.
The full ranking holds about 33,000 sequences; the median of “E-score (-0.5 to 0.5)” is about -0.056, and the highest 2% start at about 0.38. The list shows a part of the results.

target: Stb4 (UniProt P50104); experiment: PBM E-score (8-mer binding enrichment) (E-score (-0.5 to 0.5)); higher = stronger / more preferred TF binding; most listed sequences are background and not binding sites; settings: protein concentration: 200 nM; construct: GST-DNA-binding domain
Description: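 Universal 'all 10-mer' protein binding microarrays (Agilent AMADID 015681) probed with GST-tagged S. cerevisiae TFs (full-length or DBD) made by in vitro transcription/translation (PURExpress), about 100-200 nM. Bound TF was detected with fluorescent anti-GST. Each ungapped 8-mer (which stands for itself and its reverse complement) is scored by the PBM enrichment score (E-score), a modified Wilcoxon-Mann-Whitney statistic from -0.5 to +0.5, computed with the Universal PBM Analysis Suite. Scale: above 0.35 generally sequence-specific binding.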

Row | Sequence | PBM E-score
1 | CAGGAAGC | -0.0961
2 | AGATGTCC | -0.0583
3 | AGTGCCAC | -0.254
4 | AAAACCGG | 0.204
5 | AAGCTGGG | -0.0386
6 | GAGTAAAA | -0.146
7 | ACTAAATG | -0.21
8 | AAAAAACC | 0.0386
9 | AGAGCCAA | -0.255
10 | TGGGACCA | -0.326
11 | GCTGGACA | -0.216
12 | CTCCATAA | -0.275
13 | CTAAGACC | -0.00271
14 | AAGTGCCG | 0.292
15 | GCTTTCTA | 0.0674
16 | AACTAATT | -0.0211
17 | CGTCGTTA | -0.0941
18 | CACACAAG | -0.251
19 | GGCGACCA | -0.209
20 | GGCTGTTA | 0.127
21 | GTAGAACA | -0.123
22 | AAAACTGG | -0.0456

Row | Sequence | PBM E-score
23 | ACCTCGCC | -0.0213
24 | TATACATA | -0.197
25 | CGAAGCAC | 0.0573
26 | ACAGCACT | -0.207
27 | CAATGTTA | -0.103
28 | CGGGACAC | 0.261
29 | CACACATC | -0.103
30 | CCATCTGA | -0.126
31 | CAAGCAAA | -0.222
32 | TTCAAAAA | -0.102
33 | TAAGCTTA | -0.311
34 | TGGAGACA | -0.05
35 | GTCGGACA | 0.22
36 | TCAGTTAA | -0.0366
37 | ACTGCATG | -0.195
38 | AATAGCCT | -0.215
39 | ACAGCATG | -0.0696
40 | GCTTTAGA | -0.133
41 | AGGATATA | -0.0497
42 | CCAGTGTA | -0.129
43 | GCGACGCC | 0.159
44 | CGGGTGAC | 0.252

Row | Sequence | PBM E-score
45 | AACTTCCT | -0.0245
46 | CAGTAGAA | -0.274
47 | CTATTCTA | -0.129
48 | AGAATATG | -0.0614
49 | GCCGTCAC | 0.252
50 | CACAAGGA | -0.206
51 | ACTGGGGG | -0.0817
52 | GTTCGAGA | -0.154
53 | ATAAAGCC | -0.107
54 | AATTGCGG | 0.0881
55 | AACGCCGC | 0.121
56 | CCCTATAG | -0.0754
57 | GTAGTAAC | 0.0353
58 | GATCCAAC | 0.104
59 | CGTTTACC | 0.198
60 | CTTACAAC | -0.234
61 | CTGAGCAG | -0.156
62 | GATAACAC | 0.0937
63 | CAAGAATG | 0.0219
64 | ACATACAC | -0.0366
65 | AGGTATCC | 0.22
66 | AGGGACTA | -0.0886

Row | Sequence | PBM E-score
67 | ATGGTGAC | -0.268
68 | AATTCCCG | 0.355
69 | AATGATGG | 0.0527
70 | CAGAACTC | -0.176
71 | CGATAGGC | 0.0444
72 | CTTCATCA | -0.0729
73 | CCCGGAGA | 0.318
74 | CGTGAAAA | -0.0298
75 | GCTGACGA | -0.346
76 | GCGTGCGA | -0.106
77 | GTGCTGCA | -0.165
78 | GGAGGAAA | 0.0487
79 | ATCAGGGC | -0.286
80 | CATCCATA | -0.171
81 | GGGTGTGA | 0.0814
82 | CCTCCGCA | -0.0298
83 | ACAATCGG | 0.306
84 | GCATTGAC | -0.0748
85 | CACAGGAA | -0.14
86 | GCTAGCAC | -0.0526
